Several values for one entry are separate records, joined by “and”; a condition that tells them apart may be missing. Equal values may be shown once. Among all 410,000 compounds or so, about 6,400 (1.6%) were called active. The shares of active, inactive and inconclusive entries below differ from those in the screen. Calls come from the whole dose curve; as a rule, active = well fitted inhibition curve with a large enough effect; inconclusive = small, poorly fitted or top-dose-only effect; inactive = no such curve, though single readings can be large or run the other way. A potency beside an inconclusive call is a rough fit, not a confirmed value.
Each molecule was assayed against Glucagon-like peptide 1 receptor (Homo sapiens) (UniProt P43220) (assay: qHTS of GLP-1 Receptor Inverse Agonists (Inhibition Mode)). Conditions: HEK293 GLP-1R CRE-luciferase, luminescence, 24 h, GLP-1R form is constitutively active; activity change, negative = inhibition: at 38.3 µM (top of the series) unless noted.
From the text: The overall goal of this project was to develop a novel assay for discovering small molecule ligands for class B1 G protein-coupled receptors (GPCRs). Very few agonists (or inverse agonists in inhibition mode) with generally weak activity for this entire group of physiologically important receptors are known to date. To establish proof-of-principle that this critical bottleneck can be overcome with a suitable screening approach, our studies focused on the class B1 receptor for glucagon-like peptide-1 (GLP-1R), a potential therapeutic target for diabetes and neurodegenerative disease. The assay was developed using a cell-based functional readout. Toward this goal, stably transfected HEK293 cell clones were established that co-express (i) a cAMP-responsive luciferase reporter gene, and (ii) constitutively active GLP-1R that upon ligand interaction inhibit (inverse agonists) the luciferase activity. In addition, two control cell lines were developed: (i) one that express only the cAMP-responsive reporter gene to enable initial exclusion of GLP-1R independent effects of candidate probes; and (ii) one with the reported gene cloned with another constitutively active orphan receptor GPR119 to enable exclusion of GLP-1R independent inhibitor effects of candidate inverse agonists. To that end, this assay was optimized for 1536-well format and screened against the MLSMR. […] NIH Molecular Libraries Probe Production Network [MLPCN] NIH Chemical Genomics Center [NCGC] Grant: NS064851 PI Name: Martin Beinborn, Tufts Medical Center
Six ul of cell suspension (200 cells/uL in DMEM + 10% Nu serum + 1% pen-strep) is dispensed in a white solid 1536-well plate. The plates are incubated for 12 hours at 37 deg C at 5% CO2 followed by addition of 23 nL compounds. After 24 hr incubation at 37 deg C and 5% CO2, 3 uL of luciferase assay detection reagent is added. A luminescence read is obtained on the PerkinElmer Viewlux after 12 min incubation at room temperature.
% is set by controls: 0 for no effect and ±100 for the full control effect; potency is the fitted concentration of half-maximal effect; tags give direction and shape of the fitted curve.
Note: nearly all actives have a fitted effect of over 55% in size.

Chain of UniProt P43220 (P43220 whole entry, looked up): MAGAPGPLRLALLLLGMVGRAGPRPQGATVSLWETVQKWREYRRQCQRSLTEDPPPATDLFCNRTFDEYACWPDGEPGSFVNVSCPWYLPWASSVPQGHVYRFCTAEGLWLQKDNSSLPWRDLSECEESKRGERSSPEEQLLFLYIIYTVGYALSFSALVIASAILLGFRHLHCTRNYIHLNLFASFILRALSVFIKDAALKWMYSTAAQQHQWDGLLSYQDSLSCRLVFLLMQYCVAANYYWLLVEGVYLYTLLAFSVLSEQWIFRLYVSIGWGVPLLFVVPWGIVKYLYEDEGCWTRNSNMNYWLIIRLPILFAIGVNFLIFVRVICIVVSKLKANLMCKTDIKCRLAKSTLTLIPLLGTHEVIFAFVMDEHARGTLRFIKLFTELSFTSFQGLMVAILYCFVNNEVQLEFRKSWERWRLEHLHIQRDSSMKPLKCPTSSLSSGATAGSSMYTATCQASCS

| Structure (SMILES) | Potency | activity change, negative = inhibition |
| --- | --- | --- |
| COc1ccccc1/C=N/Nc1cc(N(C)C)nc(N(C)C)n1 | inconclusive: 12.6 µM [inhibitor, single point] |  |
| COc1ccc(-c2nc3ccc(NS(=O)(=O)c4ccc(Cl)cc4)cc3o2)cc1 | inconclusive: 28.2 µM [inhibitor, single point] |  |
| Cc1[nH]c2ccccc2c1/C=N/NC(N)=S |  | inactive: 55.1% |
| Cc1cc(N=Nc2ccc(Cl)cc2)cc(CN2CCOCC2)c1O | inconclusive: 12.6 µM [inhibitor, partial curve, poor fit] |  |
| O=C(NNc1ccccc1)C(=O)N1CCCCC1 | inconclusive: 1.26 µM [inhibitor, full curve, poor fit] |  |
| CCOC(=O)C1CCN(C(=O)c2ccc(S(=O)(=O)Nc3ccccc3Cl)cc2)CC1 | inconclusive: 12.6 µM [inhibitor, single point] |  |
| CCC(C(=O)OCC(=O)NC(=O)NC(C)(C)C)c1ccccc1 (centres undefined) | inconclusive: 28.2 µM [inhibitor, single point] |  |
| Cc1onc(-c2ccccc2Cl)c1C(=O)Nc1ccc(Cl)cn1 | inconclusive: 11.2 µM [inhibitor, partial curve, poor fit] |  |
| O=C(NC(=S)NC1CCCCC1)c1ccccc1 | inconclusive: 1 µM [inhibitor, partial curve, poor fit] |  |
| CC1(C)Cc2c(sc3c2c(=N)n(Cc2ccco2)c(=O)n3Cc2ccc(F)cc2)CO1 | inconclusive: 28.2 µM [inhibitor, single point] |  |
| Cc1ccc(-n2c(SCC3CCCCO3)nnc2-c2ccco2)cc1 (centres undefined) | inconclusive: 10 µM [inhibitor, partial curve] |  |
| O=c1onc(-c2ccccc2)n1-c1cc(Cl)cc(Cl)c1 | inconclusive: 7.94 µM [inhibitor, partial curve, poor fit] |  |
| Cc1ccc(-c2noc(CCC(=O)NCCN3CCc4ccccc4C3)n2)cc1 | inconclusive: 28.2 µM [inhibitor, single point] |  |
| Cc1ccccc1-c1nc(CN2CCC(C(=O)NC3CCCCC3)CC2)c(C)o1 | inconclusive: 28.2 µM [inhibitor, single point] |  |
| Cc1ccc(S(=O)(=O)n2cccc2/C=C/[N+](=O)[O-])cc1 | inconclusive: 10 µM [inhibitor, partial curve, poor fit] |  |
| O=C(Nc1nc2ccccc2[nH]1)c1ccc(OC(F)F)cc1 | inconclusive: 12.6 µM [inhibitor, single point] |  |
| O=S(=O)(c1ccc(C(F)(F)F)cc1)N1CCN(CCc2ccccc2)CC1 | inconclusive: 15.8 µM [inhibitor, partial curve, poor fit] |  |
| CCCn1c(NC(=O)c2cccc(C)c2C)nc2ccccc21 | inconclusive: 22.4 µM [inhibitor, single point] |  |
| S=C1N(c2ccccc2)C(c2ccc(Br)cc2)N2CCCN12 (centres undefined) | inconclusive: 10 µM [inhibitor, partial curve, poor fit] |  |
| Cc1ccnc(Nc2nc(-c3ccc(O)cc3)cs2)c1 |  | inactive: -23.7% |
| CN(C)CCNC(=O)Nc1ccc(Cl)c(Cl)c1 | active: 11.2 µM |  |
| CC(C)Oc1ccc(C(=O)NCC(=O)N2CCN(S(=O)(=O)/C=C/c3ccccc3)CC2)cc1 | inconclusive: 11.2 µM [inhibitor, single point] |  |

| Structure (SMILES) | Potency | activity change, negative = inhibition |
| --- | --- | --- |
| O=C(c1ccccc1)c1ccc2ccccc2c1 | inconclusive: 10 µM [inhibitor, partial curve, poor fit] |  |
| COc1ccc(CNC(=O)CN2C(=O)NC(c3ccccc3)(c3ccccc3)C2=O)cc1 | inconclusive: 8.91 µM [inhibitor, partial curve, poor fit] |  |
| CCN(c1ccccc1)S(=O)(=O)c1ccc(Cl)c(NC(=O)CN2CCN(C)CC2)c1 | inconclusive: 28.2 µM [inhibitor, single point] |  |
| COc1ccc(N2C(c3cc(OC)cc(OC)c3)=Cc3ccccc3C2CC(C)=O)cc1 (centres undefined) | inconclusive: 22.4 µM [inhibitor, single point] |  |
| CC(=O)/C(C#N)=C1\NC(=O)C(Cc2cc(Cl)ccc2Cl)S1 (centres undefined) | inconclusive: 1 µM [inhibitor, full curve, poor fit] |  |
| FC(F)(F)c1nc(SCc2ccc(Cl)cc2Cl)n[nH]1 | inconclusive: 28.2 µM [inhibitor, single point] |  |
| CC1Cc2cc(/C(O)=C3/C(=O)C(=O)N(Cc4cccnc4)C3c3cccc(O)c3)ccc2O1 (centres undefined) |  | inactive: 15.4% |
| Cc1cc(C)nc(OC(C(=O)O)C(OCCC(C)C)(c2ccccc2)c2ccccc2)n1 (centres undefined) | inconclusive: 10 µM [inhibitor, partial curve] |  |
| O=C(Nc1ccc(F)c(Cl)c1)C1CCCN(C2=NS(=O)(=O)c3ccccc32)C1 (centres undefined) | inconclusive: 11.2 µM [inhibitor, single point] |  |
| CN(C)c1ccc(CNC(=O)C2Cc3c(-c4ccccc4Oc4ccccc4)ccnc3O2)cc1 (centres undefined) | inconclusive: 10 µM [inhibitor, partial curve, poor fit] |  |
| COc1ccc(CC(=O)NCc2n[nH]c(=S)n2-c2cccc(C)c2)cc1 |  | inactive: 0.284% |
| Cc1ccc(Nc2c(-c3ccco3)nc3ccccn23)cc1 | inconclusive: 28.2 µM [inhibitor, single point] |  |
| COc1ccc(Nc2ncc(C(=O)N3CCN(c4ccc(F)cc4)CC3)c3ccccc23)cc1 | inconclusive: 8.91 µM [inhibitor, partial curve, poor fit] and inconclusive: 11.2 µM [inhibitor, partial curve, poor fit] |  |
| COc1ccc(OC)c(/C=N/Nc2nncn2/N=C/c2cc(OC)ccc2OC)c1 | inconclusive: 10 µM [inhibitor, partial curve] |  |
| COc1ccc(-c2c(-c3ccccc3OC)oc3ccccc23)cc1F | inconclusive: 11.2 µM [inhibitor, single point] |  |
| CCCc1ccc(OC(=O)c2ccc(O)cc2Cl)cc1 | inconclusive: 28.2 µM [inhibitor, single point] |  |
| c1ccc(CN2CCN(c3ncccn3)CC2)cc1 |  | inactive: -13% |
| Cc1cc(C)c2sc(NC(=O)C3=COCCO3)nc2c1 | inconclusive: 28.2 µM [inhibitor, single point] |  |
| CCc1cc2c(SC(C)C(=O)NC3CCCC3)ncnc2s1 (centres undefined) | inconclusive: 22.4 µM [inhibitor, single point] |  |
| CC(C)N(Cc1ccccc1)S(=O)(=O)c1ccc(F)cc1 | inconclusive: 10 µM [inhibitor, partial curve, poor fit] |  |
| O=C(CSCc1ccc(Cl)cc1)NCc1ccc2c(c1)OCO2 | active: 8.91 µM |  |
| COc1ccc(CNS(=O)(=O)c2ccc(-c3cnc(C4CC4)o3)cc2)cc1 | inactive |  |

| Structure (SMILES) | Potency | activity change, negative = inhibition |
| --- | --- | --- |
| CCOc1ccc(N(CC)S(=O)(=O)N2CCCC(C(=O)Nc3cc(Cl)ccc3OC)C2)cc1 (centres undefined) |  | inactive: -28.1% |
| CCOc1ccc(-c2nc(Cn3ccn4nc(-c5ccc(OCC)c(Cl)c5)cc4c3=O)c(C)o2)cc1 |  | inactive: 5.46% |
| CC(C)C(=O)Nc1ncc(Cc2ccccc2Cl)s1 |  | inactive: 5.83% [at 0.307 µM] |
| CCN(CC)CCNC(=O)c1ccc(NC(=O)c2cc(S(=O)(=O)N3CCCCC3)ccc2C)cc1 | inconclusive: 11.2 µM [inhibitor, partial curve, poor fit] |  |
| Cc1ccccc1Nc1cc(C(=O)NCc2cccs2)c2ccccc2n1 | inconclusive: 11.2 µM [inhibitor, partial curve, poor fit] |  |
| CCOc1ccc(Cl)cc1-c1cc(C(=O)NCc2cccc(C(F)(F)F)c2)[nH]n1 | inconclusive: 28.2 µM [inhibitor, single point] |  |
| CCCOC(=O)c1ccc(NC(=O)C(CC)CC)cc1 | inconclusive: 28.2 µM [inhibitor, single point] |  |
| CN(C)CCNC(=O)/C(=C/c1cccc([N+](=O)[O-])c1)NC(=O)c1ccccc1 |  | inactive: 4.47% |
| Cc1ccc(C)c(C(=O)CN2C(=O)NC3(CCCCCC3)C2=O)c1 | inconclusive: 11.2 µM [inhibitor, partial curve, poor fit] |  |
| CSc1nc(Oc2ccc(=O)n(C)n2)nc(N(C)C)n1 |  | inactive: 0.307% |
| O=C(NCCN1CCC(n2c(=O)[nH]c3ccccc32)CC1)c1cc(F)cc(F)c1 | inconclusive: 11.2 µM [inhibitor, partial curve, poor fit] |  |
| CCOC(=O)C1=CCN(S(=O)(=O)c2ccccc2Br)C1c1cccc(C)c1 (centres undefined) | inconclusive: 28.2 µM [inhibitor, single point] |  |
| CCOC(=O)c1ccc(NC(=O)c2nc[nH]c2C(=O)N(C)Cc2ccccc2)cc1 |  | inactive: 19.9% |
| COc1ccc(N(CC(=O)NCCC(C)C)C(=O)c2snc(C(=O)NC3CCCCC3)c2N)c(OC)c1 | inconclusive: 11.2 µM [inhibitor, partial curve, poor fit] |  |
| CCOC(=O)CSc1ncnc2c(C(=O)OCC)c3n(c12)CCC3 |  | inactive: 24.4% |
| O=C(Cc1ccc(Br)cc1)Nc1ccccc1N1CCCC1 | inconclusive: 5.62 µM [inhibitor, partial curve, poor fit] |  |
| O=C(NC(=S)Nc1ccccc1N1CCOCC1)c1ccc(-c2ccccc2F)o1 | inconclusive: 2 µM [inhibitor, partial curve, poor fit] |  |
| O=C(Nc1ccc(NC(=O)c2cccnc2Cl)cc1)c1cccc(Cl)c1 | inconclusive: 22.4 µM [inhibitor, single point] |  |
| Cc1c(C(=O)NCc2ccco2)sc2nc(-c3ccccc3)cn12 | inconclusive: 20 µM [inhibitor, single point] |  |
| O=C(C(Cc1ccccc1)n1cccc1)N1CCN(Cc2ccccc2)CC1 (centres undefined) | inconclusive: 12.6 µM [inhibitor, partial curve, poor fit] |  |
